Data on 113 sequences can be found in the BET-seq Pho4 binding data (Le et al. 2018).

Some of the results follow. Values were computed here from the reads of four pooled replicates and scatter widely.

The experiment deals with T1, Pho4 (S. cerevisiae) (UniProt P07270).
T1 sequence: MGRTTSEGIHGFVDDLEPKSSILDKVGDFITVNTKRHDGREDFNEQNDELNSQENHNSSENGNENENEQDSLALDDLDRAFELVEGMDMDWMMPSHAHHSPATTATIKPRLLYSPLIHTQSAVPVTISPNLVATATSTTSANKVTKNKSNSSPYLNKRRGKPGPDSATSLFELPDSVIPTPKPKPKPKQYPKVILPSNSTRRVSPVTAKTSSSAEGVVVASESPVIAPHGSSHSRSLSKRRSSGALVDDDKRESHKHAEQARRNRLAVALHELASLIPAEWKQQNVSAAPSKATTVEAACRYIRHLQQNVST
The experiment in a line: relative binding free energy (BET-seq); higher = weaker binding. The note with it: reference: library average.
Regarding GTTGGCACGTGGATTC, the “relative binding free energy” value was 0.05 kcal/mol.

On to GGAGTCACGTGCAAGG, for which the “relative binding free energy” value stood at 0.14 kcal/mol.

On to TGTTCCACGTGGGAAT, for which the “relative binding free energy” value was 0.03 kcal/mol.

For the sequence CAGTGCACGTGTCGTT, the “relative binding free energy” value is 0.03 kcal/mol.

Consider TAAGGCACGTGTGAGG, for which the “relative binding free energy” value was -0.06 kcal/mol.

In the case of GGAAGCACGTGGGTCT, the “relative binding free energy” value was -0.24 kcal/mol.

For the sequence TATTTCACGTGTAGAA, the “relative binding free energy” value was determined as 0.25 kcal/mol.

Consider AGGGTCACGTGGATGG, for which the “relative binding free energy” value is 0.14 kcal/mol.

As to GGCGTCACGTGATTGG, the “relative binding free energy” value amounted to 0.29 kcal/mol.

Turning to AGCAGCACGTGTGTGT, the “relative binding free energy” value is -0.08 kcal/mol.

On to GCTTGCACGTGGAGCG, for which the “relative binding free energy” value was 0.17 kcal/mol.

Turning to TGGGTCACGTGATGTG, the “relative binding free energy” value stood at 0.15 kcal/mol.

As to GTCAGCACGTGAGAGT, the “relative binding free energy” value came out at 0.15 kcal/mol.

For AGTGTCACGTGGAAGT, the “relative binding free energy” value was found to be 0.16 kcal/mol.

Consider ATGGACACGTGAGGAA, for which the “relative binding free energy” value worked out at 0.37 kcal/mol.

As for GCGGTCACGTGGATTT, the “relative binding free energy” value was found to be 0.26 kcal/mol.

On to GTACGCACGTGGTAGG, for which the “relative binding free energy” value is -0.21 kcal/mol.

On to GAAGACACGTGTGAGG, for which the “relative binding free energy” value worked out at 0.1 kcal/mol.

AATAGCACGTGTGTGT: the “relative binding free energy” value was -0.2 kcal/mol.

Turning to GAGCGCACGTGGAGTT, the “relative binding free energy” value turned out to be 0.03 kcal/mol.

Take TTGAGCACGTGCGCGG: the “relative binding free energy” value is -0.2 kcal/mol.

For GAGCACACGTGGGAGT, the “relative binding free energy” value was determined as 0.13 kcal/mol.

With AAGGACACGTGGCGGA, the “relative binding free energy” value was 0.03 kcal/mol.

As for TATATCACGTGGCGTA, the “relative binding free energy” value is -0.01 kcal/mol.

TTGGGCACGTGATGGA: the “relative binding free energy” value was 0 kcal/mol.

Regarding CCGGGCACGTGTGTAG, the “relative binding free energy” value was -0.06 kcal/mol.

Consider CGCTGCACGTGTGTTG, for which the “relative binding free energy” value worked out at 0.05 kcal/mol.

For CATGTCACGTGGGTTG, the “relative binding free energy” value was -0.02 kcal/mol.

Take GGTAGCACGTGGGAAA: the “relative binding free energy” value was -0.12 kcal/mol.

In the case of AAACACACGTGGGGGG, the “relative binding free energy” value is -0.13 kcal/mol.

For the sequence CATTTCACGTGTGGAT, the “relative binding free energy” value worked out at 0.32 kcal/mol.

On to GATGGCACGTGGGTCA, for which the “relative binding free energy” value was -0.2 kcal/mol.

In the case of CGTGACACGTGAGTGA, the “relative binding free energy” value amounted to 0.19 kcal/mol.

For GTGTACACGTGGGCGG, the “relative binding free energy” value was 0.04 kcal/mol.

On to AGATTCACGTGTCTTT, for which the “relative binding free energy” value was 0.33 kcal/mol.

For the sequence AGATTCACGTGTGTTA, the “relative binding free energy” value turned out to be 0.25 kcal/mol.

On to TAACGCACGTGGGGGT, for which the “relative binding free energy” value was -0.27 kcal/mol.

TGTAGCACGTGTGTAA: the “relative binding free energy” value was -0.03 kcal/mol.

For the sequence TGGGGCACGTGAACGG, the “relative binding free energy” value was determined as 0.08 kcal/mol.

Turning to ACTGGCACGTGGGTAT, the “relative binding free energy” value is -0.15 kcal/mol.

TGGTTCACGTGGTAGG: the “relative binding free energy” value was found to be 0.31 kcal/mol.

Turning to GTTTACACGTGAGAGT, the “relative binding free energy” value amounted to 0.28 kcal/mol.

As for TGTTCCACGTGGAAGT, the “relative binding free energy” value turned out to be 0.09 kcal/mol.

As for CGTCTCACGTGATGTT, the “relative binding free energy” value came to 0.29 kcal/mol.

For the sequence TACGGCACGTGTGTCG, the “relative binding free energy” value is -0.07 kcal/mol.

For the sequence ACAGTCACGTGTGTGT, the “relative binding free energy” value is 0 kcal/mol.

Take ACTATCACGTGTGGTT: the “relative binding free energy” value is 0.23 kcal/mol.

For the sequence CGTGTCACGTGGTAAG, the “relative binding free energy” value is -0.04 kcal/mol.

With GTGCGCACGTGATGGG, the “relative binding free energy” value is 0.12 kcal/mol.

In the case of AATGTCACGTGGTCAA, the “relative binding free energy” value is 0.02 kcal/mol.

For the sequence TGGGTCACGTGTAGAA, the “relative binding free energy” value was determined as 0.14 kcal/mol.

Regarding GTTGTCACGTGCGGGG, the “relative binding free energy” value was 0.09 kcal/mol.

With CCGGTCACGTGATGGG, the “relative binding free energy” value worked out at 0.31 kcal/mol.

As to TGTTACACGTGTTTCA, the “relative binding free energy” value was found to be 0.08 kcal/mol.

On to CTGTGCACGTGTATTA, for which the “relative binding free energy” value is -0.04 kcal/mol.

For TGGTGCACGTGATGTC, the “relative binding free energy” value was 0.23 kcal/mol.

GGCGGCACGTGGGAGG: the “relative binding free energy” value is -0.1 kcal/mol.

With TATGGCACGTGGTCAG, the “relative binding free energy” value is -0.18 kcal/mol.

As to TCCTTCACGTGAGGGT, the “relative binding free energy” value is 0.36 kcal/mol.

As for TCGGTCACGTGGTGGG, the “relative binding free energy” value came to 0.09 kcal/mol.

As for TCCATCACGTGGTGTT, the “relative binding free energy” value worked out at 0.15 kcal/mol.

As for TCGGGCACGTGTTTAT, the “relative binding free energy” value is -0.12 kcal/mol.

Take TAGGGCACGTGCTGGC: the “relative binding free energy” value was -0.2 kcal/mol.

For the sequence ATGATCACGTGAGTAT, the “relative binding free energy” value was found to be 0.3 kcal/mol.

For ATGTACACGTGGGGTG, the “relative binding free energy” value is -0.13 kcal/mol.

Take AGTGTCACGTGTATAG: the “relative binding free energy” value is 0.08 kcal/mol.

Consider GTATTCACGTGGGGGA, for which the “relative binding free energy” value turned out to be 0.16 kcal/mol.

Regarding CGTATCACGTGAGTGT, the “relative binding free energy” value is 0.23 kcal/mol.

Regarding TTGCACACGTGTCGGT, the “relative binding free energy” value worked out at 0.16 kcal/mol.

For the sequence CATTGCACGTGGTTTG, the “relative binding free energy” value was -0.04 kcal/mol.

With GGTTGCACGTGGAGAG, the “relative binding free energy” value was 0.08 kcal/mol.

For TTAGGCACGTGTTGAA, the “relative binding free energy” value was -0.01 kcal/mol.

Take ATGTCCACGTGTTGAG: the “relative binding free energy” value is 0.15 kcal/mol.

Turning to TGGAGCACGTGTGATT, the “relative binding free energy” value came out at 0.12 kcal/mol.

Regarding GATAACACGTGAGGTT, the “relative binding free energy” value worked out at 0.32 kcal/mol.

For the sequence TTTTGCACGTGTAAGT, the “relative binding free energy” value turned out to be 0.05 kcal/mol.

As to ATTGGCACGTGACCGT, the “relative binding free energy” value amounted to 0.04 kcal/mol.

As to GAAGCCACGTGTAGGG, the “relative binding free energy” value turned out to be 0.01 kcal/mol.

GCTTTCACGTGAGTTG: the “relative binding free energy” value stood at 0.37 kcal/mol.

For the sequence TTAGGCACGTGTAGAC, the “relative binding free energy” value was found to be 0.1 kcal/mol.

For the sequence GGTTTCACGTGATCTT, the “relative binding free energy” value was found to be 0.39 kcal/mol.

Consider AAGATCACGTGGCTGG, for which the “relative binding free energy” value was found to be 0.07 kcal/mol.

Regarding CGTTGCACGTGGTCGT, the “relative binding free energy” value is -0.19 kcal/mol.

For the sequence TAGGGCACGTGGCAGT, the “relative binding free energy” value is -0.16 kcal/mol.

Consider GGAAGCACGTGAGTTA, for which the “relative binding free energy” value amounted to 0.17 kcal/mol.

With GTTATCACGTGAAATA, the “relative binding free energy” value amounted to 0.36 kcal/mol.

As for AGTTACACGTGTCTTG, the “relative binding free energy” value stood at 0 kcal/mol.

Consider CTGTTCACGTGAAGTG, for which the “relative binding free energy” value amounted to 0.44 kcal/mol.

TATGGCACGTGGGCGT: the “relative binding free energy” value is -0.34 kcal/mol.

As to TGTATCACGTGGAGGC, the “relative binding free energy” value stood at 0.14 kcal/mol.

Take CGGATCACGTGATGTT: the “relative binding free energy” value amounted to 0.26 kcal/mol.

Take CTAGTCACGTGAGGGG: the “relative binding free energy” value worked out at 0.16 kcal/mol.

With CTAATCACGTGGATGG, the “relative binding free energy” value is 0.15 kcal/mol.

As to TGGCTCACGTGAGGGC, the “relative binding free energy” value was 0.42 kcal/mol.

As to TTTTGCACGTGACTTG, the “relative binding free energy” value amounted to 0.12 kcal/mol.

As to GCTATCACGTGGAGGG, the “relative binding free energy” value is 0.13 kcal/mol.

With GAGTTCACGTGAAGCG, the “relative binding free energy” value was determined as 0.43 kcal/mol.

As for GAAATCACGTGATTTT, the “relative binding free energy” value amounted to 0.4 kcal/mol.

As to TCTTTCACGTGGATTG, the “relative binding free energy” value turned out to be 0.17 kcal/mol.

Consider AGATACACGTGCGGGG, for which the “relative binding free energy” value is -0.01 kcal/mol.

In the case of GAGTGCACGTGGTTCA, the “relative binding free energy” value was -0.12 kcal/mol.

For ATTTTCACGTGAGGGA, the “relative binding free energy” value was 0.27 kcal/mol.

Regarding TATTACACGTGTTAGA, the “relative binding free energy” value worked out at 0.1 kcal/mol.

For the sequence TGGCTCACGTGGTTGG, the “relative binding free energy” value came out at 0.17 kcal/mol.

Turning to TCGAGCACGTGGTAGT, the “relative binding free energy” value was -0.23 kcal/mol.

Regarding TGGTGCACGTGAGTGT, the “relative binding free energy” value turned out to be 0.13 kcal/mol.

As to AGATTCACGTGTTAAT, the “relative binding free energy” value was 0.21 kcal/mol.

As for GTTAACACGTGACTGG, the “relative binding free energy” value worked out at 0.15 kcal/mol.

On to CTAGTCACGTGCTGGT, for which the “relative binding free energy” value is 0.12 kcal/mol.

For CGGGACACGTGGGTAT, the “relative binding free energy” value is -0.11 kcal/mol.

Regarding CAGGGCACGTGGGCGA, the “relative binding free energy” value is -0.22 kcal/mol.

Consider AAATACACGTGTGGTG, for which the “relative binding free energy” value turned out to be 0.05 kcal/mol.

On to TGGAGCACGTGTAATG, for which the “relative binding free energy” value is 0.08 kcal/mol.
